From article PMC12820563
The other results are listed elsewhere or left out. The list includes weakly bound sequences.

What follows are sequences tested against T1, MBP-FoxP3dN (UniProt Q99JB6) (assay: PD-seq (MBP pull-down with sequencing)). Settings: 20 mM Tris-HCl pH 7.5, 100 mM NaCl, 1.5 mM MgCl2, 0.4 uM protein, 0.1 uM dsDNA library, 30 min, room temperature, amylose pull-down; high values mean tight binding; double strand, one strand shown.
T1 sequence: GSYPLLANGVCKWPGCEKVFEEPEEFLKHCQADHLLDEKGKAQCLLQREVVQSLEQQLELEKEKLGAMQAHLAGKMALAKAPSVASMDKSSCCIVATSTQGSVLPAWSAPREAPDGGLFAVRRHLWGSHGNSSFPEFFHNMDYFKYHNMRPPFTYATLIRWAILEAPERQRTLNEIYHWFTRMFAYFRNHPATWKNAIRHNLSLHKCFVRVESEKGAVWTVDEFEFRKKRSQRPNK

Row | Sequence | binding signal (RPM ratio (pull-down/input))
1 | GATGATTGTTCTCCCAGCTGATGAATTCATTAAATCGAGTAAACAAATTTTCCTAATCTTTCTGTTCAAGCGCCATCTAC | 0.179
2 | GATGATTGTTCTCCCAGCTGATGAATTCCAGTGGTCGAGTAAACAAATTTTCCTAATCTTTCTGTTCAAGCGCCATCTAC | 0.415
3 | GATGATTGTTCTCCCAGCTGATGAATTAGTTCGGTCGAGTAAACAAATTTTCCTAATCTTTCTGTTCAAGCGCCATCTAC | 0.374
4 | GATGATTGTTCTCCCAGCTGATGAATTGACATACTCGAGTAAACAAATTTTCCTAATCTTTCTGTTCAAGCGCCATCTAC | 0.601
5 | GATGATTGTTCTCCCAGCTGATGAATTGTCATAGTCGAGTAAACAAATTTTCCTAATCTTTCTGTTCAAGCGCCATCTAC | 0.489
6 | GATGATTGTTCTCCCAGCTGATGAATTCGACGCCTCGAGTAAACAAATTTTCCTAATCTTTCTGTTCAAGCGCCATCTAC | 0.672
7 | GATGATTGTTCTCCCAGCTGATGAATTATATGCGTCGAGTAAACAAATTTTCCTAATCTTTCTGTTCAAGCGCCATCTAC | 1.07
8 | GATGATTGTTCTCCCAGCTGATGAATTTCGTAAATCGAGTAAACAAATTTTCCTAATCTTTCTGTTCAAGCGCCATCTAC | 0.336
9 | GATGATTGTTCTCCCAGCTGATGAATTACTGATTTCGAGTAAACAAATTTTCCTAATCTTTCTGTTCAAGCGCCATCTAC | 0.523
10 | GATGATTGTTCTCCCAGCTGATGAATTCCGGGGATCGAGTAAACAAATTTTCCTAATCTTTCTGTTCAAGCGCCATCTAC | 0.277
11 | GATGATTGTTCTCCCAGCTGATGAATTAGCATCGTCGAGTAAACAAATTTTCCTAATCTTTCTGTTCAAGCGCCATCTAC | 2.39
12 | GATGATTGTTCTCCCAGCTGATGAATTCCATGTTTCGAGTAAACAAATTTTCCTAATCTTTCTGTTCAAGCGCCATCTAC | 0.693
13 | GATGATTGTTCTCCCAGCTGATGAATTATCCATGTCGAGTAAACAAATTTTCCTAATCTTTCTGTTCAAGCGCCATCTAC | 0.326
14 | GATGATTGTTCTCCCAGCTGATGAATTTATCGTCTCGAGTAAACAAATTTTCCTAATCTTTCTGTTCAAGCGCCATCTAC | 2.76
15 | GATGATTGTTCTCCCAGCTGATGAATTCTATGAGTCGAGTAAACAAATTTTCCTAATCTTTCTGTTCAAGCGCCATCTAC | 1
16 | GATGATTGTTCTCCCAGCTGATGAATTACGAGATTCGAGTAAACAAATTTTCCTAATCTTTCTGTTCAAGCGCCATCTAC | 0.436
17 | GATGATTGTTCTCCCAGCTGATGAATTTCCTCTATCGAGTAAACAAATTTTCCTAATCTTTCTGTTCAAGCGCCATCTAC | 0.305
18 | GATGATTGTTCTCCCAGCTGATGAATTTCAGATGTCGAGTAAACAAATTTTCCTAATCTTTCTGTTCAAGCGCCATCTAC | 0.303
